The source of these data is the supplement of paper PMC8728848.

This is one part of the list.

What all share (test): glycan array binding signal (z-score within array); higher = stronger binding
Conditions in all cases: glycan notation: IUPAC condensed, linker removed

Experiment [1] has as its target Gal(b1-4)GlcNAc(b1-2)Man(a1-3)[Gal(b1-4)GlcNAc(b1-2)Man(a1-6)]Man(b1-4)GlcNAc(b1-4)[Fuc(a1-6)]GlcNAc. The essentials: (§1)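 Glycan array data were curated from 3228 arrays in the Consortium for Functional Glycomics database and kept only where the protein sequence was available. Glycan names were converted to IUPAC-condensed notation, and columns mapping to the same glycan were averaged. The binding signal is a within-array Z-score, averaged across arrays of the same protein sequence at different concentrations or buffers and across linkers. Negative Z-scores can be read as non-binding.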

The target in experiment [2] is Gal(b1-4)GlcNAc(b1-2)Man(a1-3)[Gal(b1-4)GlcNAc(b1-2)Man(a1-6)][Gal(b1-4)GlcNAc(b1-4)]Man(b1-4)GlcNAc(b1-4)[Fuc(a1-6)]GlcNAc. The method in brief:
as §1

The target in experiment [3] is Gal(b1-4)GlcNAc(b1-2)Man(a1-3)[Gal(b1-4)GlcNAc(b1-2)Man(a1-6)][GlcNAc(b1-4)]Man(b1-4)GlcNAc(b1-4)[Fuc(a1-6)]GlcNAc. The essentials:
as §1

Experiment [4] concerns the target Gal(b1-4)GlcNAc(b1-2)Man(a1-3)[GlcNAc(b1-2)Man(a1-6)]Man(b1-4)GlcNAc(b1-4)GlcNAc. The essentials: as §1
Experiment [5] has as its target Gal(b1-4)GlcNAc(b1-2)Man(a1-3)[GlcNAc(b1-4)][Gal(b1-4)GlcNAc(b1-2)Man(a1-6)]Man(b1-4)GlcNAc(b1-4)GlcNAc. The method in brief:
as §1

For experiment [6], the target named is Gal(b1-4)GlcNAc(b1-2)Man(a1-3)[Man(a1-6)]Man(b1-4)GlcNAc(b1-4)GlcNAc. The method in brief:
as §1

Experiment [7] addresses Gal(b1-4)GlcNAc(b1-2)Man(a1-6)Man(b1-4)GlcNAc(b1-4)GlcNAc. The method in brief: as §1
Experiment [8] addresses Gal(b1-4)GlcNAc(b1-2)Man(a1-6)[GlcNAc(b1-2)Man(a1-3)]Man(b1-4)GlcNAc(b1-4)GlcNAc. The method in brief: as §1
In experiment [9] the target is Gal(b1-4)GlcNAc(b1-2)Man(a1-6)[Man(a1-3)]Man(b1-4)GlcNAc(b1-4)GlcNAc. The method in brief:
as §1

Experiment [10] deals with Gal(b1-4)GlcNAc(b1-2)[Gal(b1-4)GlcNAc(b1-4)]Man(a1-3)[Gal(b1-4)GlcNAc(b1-2)Man(a1-6)]Man(b1-4)GlcNAc(b1-4)GlcNAc. The essentials:
as §1

The target of experiment [11] is Gal(b1-4)GlcNAc(b1-2)[Gal(b1-4)GlcNAc(b1-4)]Man(a1-3)[Gal(b1-4)GlcNAc(b1-2)[Gal(b1-4)GlcNAc(b1-6)]Man(a1-6)]Man(b1-4)GlcNAc(b1-4)GlcNAc. The essentials: as §1
Experiment [12] has as its target Gal(b1-4)GlcNAc(b1-2)[Gal(b1-4)GlcNAc(b1-4)]Man(a1-3)[GlcNAc(b1-4)][Gal(b1-4)GlcNAc(b1-2)Man(a1-6)]Man(b1-4)GlcNAc(b1-4)GlcNAc. The essentials:
as §1

Experiment [13] addresses Gal(b1-4)GlcNAc(b1-2)[Gal(b1-4)GlcNAc(b1-4)]Man(a1-3)[GlcNAc(b1-4)][Gal(b1-4)GlcNAc(b1-2)[Gal(b1-4)GlcNAc(b1-6)]Man(a1-6)]Man(b1-4)GlcNAc(b1-4)GlcNAc. The method in brief: as §1
In experiment [14] the target is Gal(b1-4)GlcNAc(b1-2)[Gal(b1-4)GlcNAc(b1-6)]Man(a1-6)[Gal(b1-4)GlcNAc(b1-2)Man(a1-3)]Man(b1-4)GlcNAc(b1-4)GlcNAc. The essentials: as §1
Experiment [15] concerns the target Gal(b1-4)GlcNAc(b1-2)[Gal(b1-4)GlcNAc(b1-6)]Man(a1-6)[Gal(b1-4)GlcNAc(b1-2)Man(a1-3)]Man(b1-4)GlcNAc(b1-4)[Fuc(a1-6)]GlcNAc. The method in brief:
as §1

Experiment [16] deals with Gal(b1-4)GlcNAc(b1-2)[Gal(b1-4)GlcNAc(b1-6)]Man(a1-6)[GlcNAc(b1-4)][Gal(b1-4)GlcNAc(b1-2)Man(a1-3)]Man(b1-4)GlcNAc(b1-4)GlcNAc. The method in brief:
as §1

Experiment [17] concerns the target Gal(b1-4)GlcNAc(b1-2)[Gal(b1-4)GlcNAc(b1-6)]Man(a1-6)[GlcNAc(b1-4)][Gal(b1-4)GlcNAc(b1-2)[Gal(b1-4)GlcNAc(b1-4)]Man(a1-3)]Man(b1-4)GlcNAc(b1-4)[Fuc(a1-6)]GlcNAc. The method in brief: as §1
Experiment [18] has as its target Gal(b1-4)GlcNAc(b1-3)Gal(b1-3)GalNAc. The method in brief: as §1
In experiment [19] the target is Gal(b1-4)GlcNAc(b1-3)Gal(b1-3)GlcNAc. The essentials:
as §1

B1: PX9961J-bvu-499-24-499 (Bacteroides vulgatus) (protein)
chain: LNTDPSTAVPSDDAIKNIDDAQVALNGIYRLASAHSYYGDNYLYYADCRGEDVQARINKGAGRRVSPYYFFDVTADDNFNITLVWNQPYKVIHQANSLIEKLDAGNAGNARPEEVARIKSEALAMRGLALFDLTRLFGMPYTLDNGASLGVPIEIQTTLEDHAPERNTVAQCYEQVLKDLNDALGGLTKEKHDAYMNYWSVKALLSRVYLYMNDNENALKCAEEVINDNGGIYRLFTHDEYPSVWGKDFNSESLFEFYFTMSEPSGGSGGEGAPMVYADNVKDWNNLILTKAYLDLLNEDPEDVRHVFPHLPENAVADTLPVAAKGQPKYLIKYPGKSGSVTDAVSTVNPQDNDLCILRLSEVYLNAAEAAFKIGNTEKALTYLNAIVTRANPAKSVTSADLSLERILKERRKELVGEGHAFFDYMRNGKSVDRSGGWHLTMPEDARVIAPSDPRVALPIPQTEIDANPNIVQNPR
For B1, the “glycan array binding signal (z-score)” value is 0.741 in [1]; -0.303 in experiment [2]; -0.332 in experiment [3]; -0.384 in [4]; -0.908 in experiment [5]; 0.153 in experiment [6]. Also, the “glycan array binding signal (z-score)” value in [7] was -0.541; in [8], -0.491; in experiment [9] it was -0.135; in [10] it was -0.602; in [11] it was -0.107; in [12] it was 0.429. Besides, the “glycan array binding signal (z-score)” value in experiment [13] is -0.467; in experiment [14], 0.07; in [15] it was 0.199; in experiment [16] it was -0.073; in experiment [17], 0.482; in experiment [18], -0.725. Further, the “glycan array binding signal (z-score)” value in [19] is -0.35.
